Assay results as given in patent publication US20230227428A1 (Anaxis Pharma Pty Ltd, priority 2020, published 2023).
pIC50, pKd: −log10 of the molar value.

Key:
U937 cells = test: Counter screen: cell viability of U937 cells treated with compound without the TSQ cocktail (off-target effect); conditions: Homo sapiens, U-937, compound in DMSO without the TSQ cocktail, cell viability by CelltiterGlo, read-out: Off-target effect (IC50 cell-based assay)
Description: (§1) Cell Line ID: U937 human histiocytic leukemia cell line.
(§2) The cellular assay was carried out according to the following steps: • 1. Each well was prepared by sequential addition of: • a. DMSO (control; columns 1-2 and 23-24) or compound in DMSO—addition was performed using acoustic transfer of nl volumes of stock compound to give final test concentrations of 36, 12, 4, 1.3, 0.44, 0.148, 0.049, 0.016, 0.005 and 0.002 μM. All wells were backfilled with DMSO to a final total volume in the well of 100 nl. • b. Following compound/DMSO addition in step (a), 40 μL of cell suspension (5×10^5 cells/mL) was added to provide a final cell concentration of 20,000 cells per well, and • c. Following cell addition in step (b), 10 μL of 5×TSQ cocktail (except to positive controls; […]) was added to each well. • 2. After 48 hours, plate was removed from the 37° C. incubator and equilibrated to room temperature for 45 minutes. • 3. 15 μL of room temperature CellTitre-Glo2™ (Promega™) was added to each well. • 4. Shook plates for 2 minutes (˜600 rpm) and incubated at room temperature for 15 minutes to allow signal to stabilise. • 5. Read luminescence readout on a plate reader.
(§3) Curve fitting: 10-point titration curves are fitted with the 4-parameter logistic nonlinear regression model and the IC50 reported is the inflection point of the curve
Counter screen: In parallel, all compounds were tested for their ability to affect cell viability. The same U937 cells were treated with compound in DMSO without the TSQ cocktail. This counter screen enabled evaluation of off-target effects. In this case, cell viability was measured by CelltiterGlo.

RIP3 = molecular target: T1, RIP3 (Homo sapiens, UniProt Q9Y572); test: KINOMEscan binding affinity assay, RIP3; conditions: equilibrium dissociation constant
T1 construct: purchased DiscoverX (KINOMEscan service); host or cells: E. coli BL21-derived host (T7 phage) or HEK-293
T1 sequence (Q9Y572 whole entry): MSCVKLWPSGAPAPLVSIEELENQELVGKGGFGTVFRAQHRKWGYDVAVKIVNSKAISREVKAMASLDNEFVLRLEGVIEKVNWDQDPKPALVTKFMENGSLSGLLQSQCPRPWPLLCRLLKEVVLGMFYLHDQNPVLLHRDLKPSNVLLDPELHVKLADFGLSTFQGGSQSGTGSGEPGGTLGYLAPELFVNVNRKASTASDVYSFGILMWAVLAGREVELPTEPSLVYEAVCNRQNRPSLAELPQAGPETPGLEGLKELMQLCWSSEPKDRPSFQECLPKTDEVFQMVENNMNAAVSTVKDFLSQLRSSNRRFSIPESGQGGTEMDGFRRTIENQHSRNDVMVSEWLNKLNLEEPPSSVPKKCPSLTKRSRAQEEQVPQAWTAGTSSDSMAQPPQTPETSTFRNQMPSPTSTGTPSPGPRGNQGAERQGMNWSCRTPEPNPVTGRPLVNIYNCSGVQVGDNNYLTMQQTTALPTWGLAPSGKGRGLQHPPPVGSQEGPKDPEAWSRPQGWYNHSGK
Source text: (§4) The Hill Slope was set to −1.

RIP1 = molecular target: T2, RIP1 (Homo sapiens, UniProt Q13546); test: KINOMEscan binding affinity assay, RIP1; conditions: equilibrium dissociation constant
T2 construct: purchased DiscoverX (KINOMEscan service); host or cells: E. coli BL21-derived host (T7 phage) or HEK-293
T2 sequence (Q13546 1-671): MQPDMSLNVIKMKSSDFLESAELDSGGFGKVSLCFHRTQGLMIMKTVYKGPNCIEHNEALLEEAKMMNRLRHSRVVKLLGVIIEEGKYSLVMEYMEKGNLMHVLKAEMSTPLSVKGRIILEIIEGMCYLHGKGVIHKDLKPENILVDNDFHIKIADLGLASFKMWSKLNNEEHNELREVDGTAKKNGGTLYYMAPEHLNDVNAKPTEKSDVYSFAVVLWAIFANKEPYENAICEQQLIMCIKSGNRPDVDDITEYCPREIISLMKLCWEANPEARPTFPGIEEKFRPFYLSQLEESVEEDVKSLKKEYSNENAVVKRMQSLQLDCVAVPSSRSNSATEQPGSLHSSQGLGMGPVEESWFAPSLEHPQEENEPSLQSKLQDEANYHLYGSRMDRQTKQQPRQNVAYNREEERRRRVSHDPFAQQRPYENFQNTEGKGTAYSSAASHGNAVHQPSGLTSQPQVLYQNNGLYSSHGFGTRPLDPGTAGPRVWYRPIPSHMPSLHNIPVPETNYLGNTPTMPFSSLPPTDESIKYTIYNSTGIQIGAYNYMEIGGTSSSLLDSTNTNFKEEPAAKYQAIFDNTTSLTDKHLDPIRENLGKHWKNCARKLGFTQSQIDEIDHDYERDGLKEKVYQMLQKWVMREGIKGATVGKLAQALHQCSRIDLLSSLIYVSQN
Source text: as §4

[1] = system: U937 human histiocytic leukemia cell line; test: Cellular assay: inhibition of TSQ induced necroptosis, 384 well plate format; conditions: U-937, U937 cells, TSQ cocktail (TNF, Smac mimetic, Q-VD-OPh), 48 hours, CellTitre-Glo, read-out: Inhibition of TSQ-induced necroptosis (IC50 cell-based assay)
Description: Cellular Assay: Screening Compounds for Inhibition of TSQ Induced Necroptosis, 384 Well Plate Format.
as §1
Cell Concentration (cells/well): Final cell density is 20000 cells per well.
Cell growth medium: HT-RPMI medium+7.4% Fetal Bovine Serum (FBS). Cells are cultured in Corning 150 cm^2 tissue culture flasks with vented caps at 37° C./5% CO2.
Incubation: Plates were incubated at 37° C./5% CO2 in a humidified incubator for 48 hours following addition of compounds and death stimuli (TSQ cocktail).
Compound concentration: 36 μM starting concentration, 1:3 dilution, 10 point
DMSO final concentration (% v/v): 0.3%.
Compounds in TSQ cocktail (T: TNF; S: Smac mimetic; Q: Q-VD-OPh) and their final concentrations:
hTNF-Fc (100 ng/ml)—produced by standard procedures as shown in Bossen et al., J Biol Chem, 2006, 281(20), 13964-13971.
Compound A (500 nM)—Smac mimetic, Tetralogic and SYNthesis med chem Q-VD-OPh (10 μM)—MP Biomedicals
as §2
Percent viability was calculated for each compound according to equation (2):
% viability=100×((RawData−NSA)/(TA−NSA) (2)
wherein RawData is the readout of any cell containing a compound of the invention TA is the total activity provided by the luminescence readout from DMSO only wells (columns 2 and 24)=100% viability NSA is the non-specific activity provided by DMSO+TSQ wells (columns 1 and 23)=0% viability
as §3
Analysis: Data was loaded into Dotmatics™ and visualised using the Tibco® Spotfire™ software. points titration curve were fitted with the 4 parameter logistic nonlinear regression model and the IC50 reported reflect the inflection point of the curve for curve fitting.
Assay involving the TSQ cocktail (T: TNF; S: Smac mimetic; Q: Q-VD-OPh): TSQ treatment ensures that cells specifically undergo necroptotic cell death. TNF activates the TNF receptor, Smac mimetic directs the signal away from proinflammatory signaling and toward the RIP1/RIP3-mediated cell death pathways, and Q-VD-OPh ensures that the apoptotic response is blocked leaving only the programmed necrosis response. The compounds' activity (solution in DMSO) tested in this TSQ-induced assay was evaluated by determining the number of viable cells in culture by measuring the amount of ATP present as measured by CelltiterGlo.

MLKL (full length) = molecular target: T3, MLKL (full length) (Homo sapiens, UniProt Q8NB16); test: KINOMEscan binding affinity assay, MLKL; conditions: equilibrium dissociation constant
T3 construct: purchased DiscoverX (KINOMEscan service); host or cells: E. coli BL21-derived host (T7 phage) or HEK-293
T3 sequence (Q8NB16 1-471): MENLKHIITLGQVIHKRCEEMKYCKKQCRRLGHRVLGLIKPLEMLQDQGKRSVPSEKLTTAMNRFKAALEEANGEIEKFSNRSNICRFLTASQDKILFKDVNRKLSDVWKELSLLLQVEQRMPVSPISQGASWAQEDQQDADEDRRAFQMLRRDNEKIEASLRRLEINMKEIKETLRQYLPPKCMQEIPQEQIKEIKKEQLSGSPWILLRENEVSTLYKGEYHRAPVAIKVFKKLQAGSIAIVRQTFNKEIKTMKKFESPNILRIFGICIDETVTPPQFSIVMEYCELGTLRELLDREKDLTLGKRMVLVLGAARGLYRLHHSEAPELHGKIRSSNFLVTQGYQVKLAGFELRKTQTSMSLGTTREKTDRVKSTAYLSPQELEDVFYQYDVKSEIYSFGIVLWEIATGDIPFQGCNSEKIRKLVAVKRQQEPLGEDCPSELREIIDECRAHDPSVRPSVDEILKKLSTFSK
Source text: as §4

SMILES: Cc1cc(Nc2[nH]nc(-c3ccc(NC(=O)N4CCCC(c5ccccc5)C4)cc3)c2C(N)=O)cc(C)n1 (stereo not drawn) [Compound 87, N-(4-(4-carbamoyl-5-((2,6-dimethylpyridin-4-yl)amino)-1H-pyrazol-3-yl)phenyl)-3-phenylpiperidine-1-carboxamide]
- pIC50 (U937 cells): < 6.00
- pKd (RIP3): < 6.00
- pKd (RIP1): 6.00 to 7.00
- pIC50 [1]: 6.00 to 7.00
- pKd (MLKL (full length)): > 7.00

SMILES: NC(=O)c1c(-c2ccc(NC(=O)Nc3ccc(OC(F)(F)F)cc3)cc2)n[nH]c1Nc1cnccn1 [Compound 107, 5-(pyrazin-2-ylamino)-3-(4-(3-(4-(trifluoromethoxy)phenyl)ureido)phenyl)-1H-pyrazole-4-carboxamide]
- pIC50 (U937 cells): < 6.00
- pKd (RIP3): < 6.00
- pKd (RIP1): < 6.00
- pIC50 [1]: > 7.00
- pKd (MLKL (full length)): > 7.00

SMILES: COc1cc(Nc2[nH]nc(-c3ccc(NC(=O)N(C)Cc4ccccc4)cc3)c2C(N)=O)ccn1 [Compound 64, 3-(4-(3-benzyl-3-methylureido)phenyl)-5-((2-methoxypyridin-4-yl)amino)-1H-pyrazole-4-carboxamide]
- pIC50 (U937 cells): < 6.00
- pKd (RIP3): < 6.00
- pKd (RIP1): 6.00 to 7.00
- pIC50 [1]: 6.00 to 7.00
- pKd (MLKL (full length)): > 7.00

SMILES: COc1ccc(C2CCCN(C(=O)Nc3ccc(-c4n[nH]c(Nc5cnccn5)c4C(N)=O)cc3)C2)cc1 (stereo not drawn) [Compound 88, N-(4-(4-carbamoyl-5-(pyrazin-2-ylamino)-1H-pyrazol-3-yl)phenyl)-3-(4-methoxyphenyl)piperidine-1-carboxamide]
- pIC50 (U937 cells): < 6.00
- pKd (RIP3): < 6.00
- pKd (RIP1): 6.00 to 7.00
- pIC50 [1]: 6.00 to 7.00
- pKd (MLKL (full length)): 6.00 to 7.00

SMILES: NC(=O)c1c(-c2ccc(NC(=O)N3CCC[C@H](c4ccccc4)C3)cc2)n[nH]c1Nc1cccc(C(F)(F)F)n1 [Compound 82, (R)-N-(4-(4-carbamoyl-5-((6-(trifluoromethyl)pyridin-2-yl)amino)-1H-pyrazol-3-yl)phenyl)-3-phenyl-piperidine-1-carboxamide]
- pIC50 (U937 cells): < 6.00
- pKd (RIP3): < 6.00
- pKd (RIP1): < 6.00
- pIC50 [1]: < 6.00
- pKd (MLKL (full length)): 6.00 to 7.00

SMILES: NC(=O)c1c(-c2ccc(NC(=O)Cc3ccccc3C(F)(F)F)cc2)n[nH]c1Nc1ccccn1 [Compound 7, 3-(4-(2-(2-(trifluoro-methyl)phenyl)acetamido)phenyl)-5-(pyridin-2-ylamino)-1H-pyrazole-4-carboxamide]
- pKd (RIP3): < 6.00
- pKd (RIP1): 6.00 to 7.00
- pIC50 [1]: 6.00 to 7.00
- pKd (MLKL (full length)): 6.00 to 7.00

SMILES: NC(=O)c1c(-c2ccc(NC(=O)N3CCCC(c4cc(F)cc(F)c4)C3)cc2)n[nH]c1Nc1cccc(C(F)(F)F)n1 (stereo not drawn) [Compound 81, N-(4-(4-carbamoyl-5-((6-(trifluoromethyl)pyridin-2-yl)amino)-1H-pyrazol-3-yl)phenyl)-3-(3,5-difluorophenyl)piperidine-1-carboxamide]
- pIC50 (U937 cells): < 6.00
- pKd (RIP3): < 6.00
- pKd (RIP1): > 7.00
- pIC50 [1]: > 7.00
- pKd (MLKL (full length)): 6.00 to 7.00

SMILES: CNC(=O)c1cc(Nc2[nH]nc(-c3ccc(NC(=O)Nc4ccc(OC(F)(F)F)cc4)cc3)c2C(N)=O)ccc1C [Compound 115, 5-((4-methyl-3-(methylcarbamoyl)phenyl)amino)-3-(4-(3-(4-(trifluoromethoxy)phenyl)ureido)phenyl)-1H-pyrazole-4-carboxamide]
- pKd (RIP3): < 6.00
- pKd (RIP1): 6.00 to 7.00
- pIC50 [1]: > 7.00
- pKd (MLKL (full length)): 6.00 to 7.00

SMILES: NC(=O)c1c(-c2ccc(NC(=O)N3CCc4ccccc4C3)cc2)n[nH]c1Nc1ccccn1 [Compound 47]
- pKd (RIP3): < 6.00
- pKd (RIP1): < 6.00
- pIC50 [1]: < 6.00
- pKd (MLKL (full length)): 6.00 to 7.00

SMILES: NC(=O)c1c(-c2ccc(NC(=O)N3CCCC(c4cccc(F)c4)C3)cc2)n[nH]c1Nc1cnccn1 (stereo not drawn) [Compound 95, N-(4-(4-carbamoyl-5-(pyrazin-2-ylamino)-1H-pyrazol-3-yl)phenyl)-3-(3-fluorophenyl)piperidine-1-carboxamide]
- pIC50 (U937 cells): < 6.00
- pKd (RIP3): 6.00 to 7.00
- pKd (RIP1): > 7.00
- pIC50 [1]: > 7.00
- pKd (MLKL (full length)): > 7.00

SMILES: Cc1cccc(Nc2[nH]nc(-c3ccc(NC(=O)Cc4ccccc4)cc3)c2C(N)=O)n1 [Compound 39, 3-(4-(2-phenylacetamido)phenyl)-5-(6-methylpyridin-2-ylamino)-1H-pyrazole-4-carboxamide]
- pKd (RIP3): < 6.00
- pKd (RIP1): < 6.00
- pIC50 [1]: 6.00 to 7.00
- pKd (MLKL (full length)): 6.00 to 7.00

SMILES: COc1cccc(Nc2[nH]nc(-c3ccc(NC(=O)Nc4ccc(OC(F)(F)F)cc4)cc3)c2C(N)=O)c1 [Compound 105, 5-((3-methoxyphenyl)amino)-3-(4-(3-(4-(trifluoromethoxy)phenyl)ureido)phenyl)-1H-pyrazole-4-carboxamide]
- pKd (RIP3): < 6.00
- pKd (RIP1): > 7.00
- pIC50 [1]: 6.00 to 7.00
- pKd (MLKL (full length)): 6.00 to 7.00

SMILES: COc1ccc(Nc2[nH]nc(-c3ccc(NC(=O)Nc4ccc(OC(F)(F)F)cc4)cc3)c2C(N)=O)cc1 [Compound 111, 5-((4-methoxyphenyl)amino)-3-(4-(3-(4-(trifluoromethoxy)phenyl)ureido)phenyl)-1H-pyrazole-4-carboxamide]
- pKd (RIP3): < 6.00
- pKd (RIP1): > 7.00
- pIC50 [1]: > 7.00
- pKd (MLKL (full length)): 6.00 to 7.00

SMILES: CN(C(=O)Nc1ccc(-c2n[nH]c(Nc3ccccn3)c2C(N)=O)cc1)c1ccccc1 [Compound 48, 3-(4-(3-methyl-3-phenylureido)phenyl)-5-(pyridin-2-ylamino)-1H-pyrazole-4-carboxamide]
- pKd (RIP3): < 6.00
- pKd (RIP1): < 6.00
- pIC50 [1]: < 6.00
- pKd (MLKL (full length)): 6.00 to 7.00
